Measured values: PubChem BioAssay AID504332 (National Center for Advancing Translational Sciences (NCATS), 2011)
The whole screen tested about 350,000 compounds, of which about 31,000 (8.9%) were called active. This list was built around the results that the source calls inconclusive (neither active nor inactive); the mix of calls is not that of the screen. The call rests on the fitted dose curve; in most records, active means well fitted inhibition curve with a large enough effect; inconclusive means small, poorly fitted or top-dose-only effect; inactive means no such curve, though single readings can be large or run the other way. Potencies of inconclusive entries are doubtful fits and often do not repeat.

Each compound was assayed against Histone-lysine N-methyltransferase EHMT2 (Homo sapiens) (UniProt Q96KQ7) (assay: qHTS Assay for Inhibitors of Histone Lysine Methyltransferase G9a). Conditions: G9a H3K9 monomethylation, AlphaScreen, 2 h; activity, negative = inhibition: at 59 µM (top of the series) unless noted.
Summary of the method: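 Step 1: enzyme (final 20 nM) with compound, 15 min RT. Step 2: substrate peptide 500 nM and SAM 20 uM, 2 h RT. Step 3: anti-H3K9me1 antibody and AlphaScreen beads, 10 min, then plate read.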
Further: nearly all actives have a fitted effect of over 75% in size.
On the % scale 0 is the no-effect control and ±100 the full control effect; potency means the concentration at half of the fitted maximal effect; tags describe the fitted curve by direction and shape.

Sequence of UniProt Q96KQ7 (Q96KQ7 whole entry, looked up): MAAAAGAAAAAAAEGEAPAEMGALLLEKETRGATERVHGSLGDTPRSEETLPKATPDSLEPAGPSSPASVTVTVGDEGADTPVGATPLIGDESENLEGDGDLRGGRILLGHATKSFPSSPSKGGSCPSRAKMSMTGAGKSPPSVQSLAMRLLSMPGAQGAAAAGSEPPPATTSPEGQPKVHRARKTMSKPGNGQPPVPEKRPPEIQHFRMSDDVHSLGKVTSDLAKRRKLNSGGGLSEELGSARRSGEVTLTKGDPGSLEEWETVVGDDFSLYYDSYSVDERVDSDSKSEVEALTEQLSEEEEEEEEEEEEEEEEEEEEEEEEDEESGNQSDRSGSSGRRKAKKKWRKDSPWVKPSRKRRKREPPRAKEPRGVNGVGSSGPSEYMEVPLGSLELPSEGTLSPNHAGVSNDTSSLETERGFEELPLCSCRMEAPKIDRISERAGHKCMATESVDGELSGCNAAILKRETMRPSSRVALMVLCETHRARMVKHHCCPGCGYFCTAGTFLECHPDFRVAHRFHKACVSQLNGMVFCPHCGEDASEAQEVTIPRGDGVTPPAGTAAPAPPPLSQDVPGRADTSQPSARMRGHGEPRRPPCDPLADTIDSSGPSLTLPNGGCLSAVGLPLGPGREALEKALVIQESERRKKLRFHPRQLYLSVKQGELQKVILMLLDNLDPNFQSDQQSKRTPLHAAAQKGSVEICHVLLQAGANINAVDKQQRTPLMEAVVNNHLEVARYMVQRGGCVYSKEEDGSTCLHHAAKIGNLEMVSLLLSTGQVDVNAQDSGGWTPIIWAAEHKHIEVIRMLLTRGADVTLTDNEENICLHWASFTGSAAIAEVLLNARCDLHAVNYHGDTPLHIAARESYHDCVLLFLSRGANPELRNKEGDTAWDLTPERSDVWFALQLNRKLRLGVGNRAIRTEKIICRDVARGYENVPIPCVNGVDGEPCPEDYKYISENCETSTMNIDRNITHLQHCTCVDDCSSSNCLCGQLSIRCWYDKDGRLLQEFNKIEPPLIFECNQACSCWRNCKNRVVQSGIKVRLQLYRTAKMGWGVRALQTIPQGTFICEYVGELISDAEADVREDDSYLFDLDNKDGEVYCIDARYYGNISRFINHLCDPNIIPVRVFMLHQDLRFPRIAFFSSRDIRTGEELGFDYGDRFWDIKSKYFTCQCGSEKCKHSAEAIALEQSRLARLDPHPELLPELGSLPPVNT

Compound	Potency	activity, negative = inhibition
COc1ccc(CCNC(=O)CCC(=O)N2CC(C)Oc3ccccc32)cc1OC (stereo unspecified)	inactive	
O=C(NC(=S)Nc1ccc(S(=O)(=O)Nc2nccs2)cc1)c1ccc(Br)o1	inconclusive: 50.1 µM [inhibitor, partial curve]	
CCCC[C@@H](CN[C@H](C)CNC)NCC1CCC(C(C)(C)C)CC1 (stereo partly specified)	inconclusive: 89.1 µM [inhibitor, single point]	
O=C(CCNC(=O)c1ccccc1Cl)Nc1nccs1	inconclusive: 89.1 µM [inhibitor, partial curve, poor fit]	
CN(CCO)CCOCCOc1cccc2ccccc12	inconclusive: 25.1 µM [inhibitor, partial curve, poor fit]	
COc1ccc(NCc2nnc(SCC(=O)N3CCCc4ccccc43)o2)cc1	inconclusive: 17.8 µM [inhibitor, partial curve]	
CC(=O)c1ccc(N(CC(=O)NCCc2ccccc2)C(=O)c2csnn2)cc1	inactive	
CCSc1ncc(Cl)c(C(=O)N2CCN(c3ccc(OC)cc3)CC2)n1	active: 14.1 µM	
COc1ccc(C)cc1NC(=O)C(CCS(C)(=O)=O)NC(C)=O (stereo unspecified)	inconclusive: 39.8 µM [inhibitor, partial curve, poor fit]	
Cc1cc(C)cc(OCC(=O)OCCN2C(=O)c3ccccc3C2=O)c1	active: 56.2 µM	
O=S(=O)(NC1CCCC1)c1cc(F)ccc1F	inactive	
O=C(CN1CCOCC1)Nc1cc(C(F)(F)F)ccc1Cl	inactive	
O=C(Nc1ccc(CN2CCCCC2)cc1)c1sc2ccccc2c1Cl	inconclusive: 79.4 µM [inhibitor, partial curve, poor fit]	
COc1ccc(C(=O)Nc2nncs2)c(OC)c1	active: 39.8 µM	
CN(C)CCCNc1ncnc2c1cnn2Cc1ccccc1Cl	inconclusive: 79.4 µM [inhibitor, single point]	
Cc1ccc(S(=O)(=O)c2c(C)nn(-c3ccccc3)c2OC(=O)c2ccccc2F)cc1	inconclusive: 20 µM [inhibitor, partial curve, poor fit]	
Cc1cc(OCC(=O)N2CCOCC2)ccc1NC(=O)C1CCCCC1	inactive	
C=CCNCCOc1c(C)cc(C)cc1Cl	inactive	
COc1cc(NS(=O)(=O)c2ccc(NC(=S)NC(=O)c3sc4cc(F)ccc4c3Cl)cc2)nc(OC)n1	inconclusive: 8.91 µM [inhibitor, partial curve, poor fit]	
Fc1ccccc1CSc1nnc(-c2cnccn2)n1Cc1ccco1	inactive	
COC(=O)c1c(C)[nH]c(-c2csc(N)n2)c1C	inconclusive: 50.1 µM [inhibitor, partial curve, poor fit]	
COc1ccc(-c2cn(CCC(=O)NCc3ccc(C)cc3)c(-c3ccncc3)n2)cc1	inconclusive: 89.1 µM [inhibitor, single point]	
CC(C)CC1(C(=O)O)NC(c2ccccc2O)C2C(=O)N(C(C)C)C(=O)C21 (stereo unspecified)	inactive	

Compound	Potency	activity, negative = inhibition
Cc1c(C(=O)NCc2cccnc2)oc2ccc(S(=O)(=O)N3CC(C)CC(C)C3)cc12 (stereo unspecified)	inconclusive: 35.5 µM [inhibitor, single point]	
S=c1[nH]nc(C2CCCCC2)n1/N=C/c1ccccc1	active: 20 µM	
COc1cc(OC)cc(C(=O)Nc2cccc(N3CCCC3)c2)c1	active: 3.55 µM	
Clc1ccc(CN2CCSCC2)cc1Cl	inconclusive: 15.8 µM [inhibitor, partial curve, poor fit]	
CC(C)(C)OC(=O)N1CCC(c2c(C(=O)NCc3ccco3)cnn2-c2ccc(F)cc2)CC1	inconclusive: 7.94 µM [inhibitor, partial curve, poor fit]	
CCNc1nc(NC(C)C)nc(Oc2ccc(OCCOc3ccc(C)cc3)nn2)n1		inconclusive: -52% [inhibitor] [at 102 µM]
COc1ccc(OCC(=O)Nc2ccc(N3CCN(C(=O)c4ccccc4C)CC3)cc2)cc1	inconclusive: 3.16 µM [inhibitor, full curve, poor fit]	
C=CCNC(=O)CNS(=O)(=O)c1ccc(F)cc1	inconclusive: 31.6 µM [inhibitor, single point]	
Cc1ccccc1Nc1nc(-c2sc(NC(=O)c3ccco3)nc2C)cs1		inconclusive: -116% [inhibitor]
CCSc1nnc(NC(=O)C(CC)(C(F)(F)F)C(F)(F)F)s1	active: 50.1 µM	
CCC(=O)Oc1ccc(-c2nc3ccccc3c(=O)o2)cc1	inactive	
CN1CCC(Nc2ncc3ncnc(Nc4ccc(F)c(Cl)c4)c3n2)CC1	inconclusive: 11.2 µM [inhibitor, partial curve]	
O=C(O)c1nc(Cl)c(Cl)c(N/N=C/c2ccccc2C(F)(F)F)c1Cl	inconclusive: 89.1 µM [inhibitor, single point]	
CCC1CCCCN1C(=O)CNCC1CCCO1 (stereo unspecified)	active: 17.8 µM	
Cc1nnc(SCC(=O)NCc2ccc(Cl)cc2)[nH]c1=O	inconclusive: 0.141 µM [inhibitor, partial curve, poor fit]	
CC(/C=N/NC(=O)c1cccnc1)=C\c1ccco1		inactive: -8.81% [at 12.7 µM]
O=c1c2sc3ccccc3c2n(Cc2ccccc2F)c(=O)n1CCc1ccccc1	inactive	
Cc1cc(N2CCN(C(c3ccccc3)c3ccc(Cl)cc3)CC2)n2ncnc2n1 (stereo unspecified)	inconclusive: 79.4 µM [inhibitor, partial curve, poor fit]	
CN(C)c1ccc(C(CNS(=O)(=O)c2ccc(Br)cc2)N2CCOCC2)cc1 (stereo unspecified)	inconclusive: 20 µM [inhibitor, single point]	
CCN(CC)Cc1c(C(=O)N/N=C/c2ccccn2)nnn1-c1nonc1N	inconclusive: 1 µM [inhibitor, full curve, poor fit]	
CCCc1cc(Nc2cccc(OCC)c2)n2ncnc2n1	active: 56.2 µM	
O=c1c2c3c(sc2n2cnnc2n1CCc1ccccc1)CCCC3	inconclusive: 17.8 µM [inhibitor, full curve, poor fit]	
CCCCN1C(=S)NC[C@@H]1Cc1ccccc1		inconclusive: -59.6% [inhibitor]
